Assay results published in article PMC8048981, “Cys–Cys and Cys–Lys Stapling of Unprotected Peptides Enabled by Hypervalent Iodine Reagents” (Angewandte Chemie (International Ed. in English), 2021).

Experiments:
[1] = Circular dichroism measurements (helicity); assay type: physicochemical; settings: 0.1 mM peptide, 40% TFE/water; average of at least 2 values
Description: To study the changes induced in the peptide conformations, we obtained circular dichroism measurements of the helical linear peptides and the corresponding isolated stapled peptides (Table 2, entries 1–3, 7–10, 16–18, 21–23).
Figure 2 Circular Dichroism (180–240 nm) spectra of linear (represented by a black line) and stapled peptides. Measured using 0.1 mM 40 % TFE/Water solutions. See Figure S3–6 in Supporting Information for the data of other stapled peptides.
16. Circular Dichroism Measurements
General Procedure for the measurement of CD spectra: The lyophilized solid linear and staple peptides were dissolved in water (bubbled with nitrogen for 30 minutes) to afford a 1 mM solution.
The 1 mM stock solution was diluted with water and TFE to afford 0.1 mM solutions with 0, 5, 10, 20 and/or 40% TFE. The ellipticity was measured from 260 nM to 180 nM. The data described is the average of at least 2 values. The mean peptide ellipticity [θ] was calculated using equation (1) and plotted against wavelength. […]
θ: ellipticity [mdeg], C: peptide molar concentration [M], Np: number of peptide units, l: cell path length [cm].10 The linear and staple peptides were compared at the same % of TFE. When possible, the comparison was made at 40% TFE. When HT went over 700 V the data was not considered accurate. For 17a only measurements at 5% TFE provided reliable data over the whole range of wavelengths. For 27a, no change was observed between 5% and 10 % TFA, thus for comparability 26 and 27b are also reported at 5% TFA.
Table S11: Values of [θ] at 208 and 222 nm at 40% TFE:
10 Shepherd, N. E.; Hoang, H. N.; Abbenante, G.; Fairlie, D. P. J. Am. Chem. Soc. 2005, 127, 2974-2983.

[2] = sequence introduced by Verdine and co-workers; ref [22]; cited from earlier work
Excerpt: With the reagents in hand, we moved to apply them on a peptide model (Table 1).

cell = settings: not told; cited from earlier work
[3] = target: T1, human MDM2 fused to GST (hMDM2-GST) (Homo sapiens, UniProt Q00987); test: Direct fluorescence polarization binding assay
T1 sequence (Q00987 whole entry, the tested form may be a part): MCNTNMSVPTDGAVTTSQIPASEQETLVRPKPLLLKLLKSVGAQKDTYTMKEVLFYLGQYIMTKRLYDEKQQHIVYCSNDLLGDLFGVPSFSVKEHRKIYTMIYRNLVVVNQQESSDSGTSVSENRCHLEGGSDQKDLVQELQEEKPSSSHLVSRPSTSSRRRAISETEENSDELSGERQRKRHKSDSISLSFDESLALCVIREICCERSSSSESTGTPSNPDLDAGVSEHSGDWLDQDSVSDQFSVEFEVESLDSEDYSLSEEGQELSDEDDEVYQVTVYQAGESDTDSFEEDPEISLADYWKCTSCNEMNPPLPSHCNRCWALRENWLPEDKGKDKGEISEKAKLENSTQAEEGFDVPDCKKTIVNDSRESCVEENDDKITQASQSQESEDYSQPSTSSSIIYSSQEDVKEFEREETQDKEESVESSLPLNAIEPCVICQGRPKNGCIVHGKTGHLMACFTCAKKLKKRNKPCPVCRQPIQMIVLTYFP

[4] = target: T1, human MDM2 fused to GST (hMDM2-GST); test: Competition fluorescence polarization assay (displacement of fluorescein-labeled reporter peptide); assay type: binding; settings: reporter peptide 50 nM, hMDM2-GST 1 M [sic]; peptide 50 M [sic] to 49 nM; phosphate buffer pH 7.4, TCEP, 0.01% Tween-20; 30 min room temperature; average of two independent measurements

Compound	mean peptide ellipticity [θ] at 208 nm, 40% TFE [1]	mean peptide ellipticity [θ] at 222 nm, 40% TFE [1]	helicity vs wild type helical binding domain of p53 [2]	cell permeability vs wild type helical binding domain of p53 (cell)	binding affinity to MDM2 in words ([3]; FP, fluorescein-labelled stapled vs linear peptide)	displacement of the fluorescent probe from MDM2 [4]	fold higher affinity to MDM2 than the linear peptide ([3]; stapled vs linear fluorescein-labelled peptide, from K d values) [fold]
Ac-QSQQTFCNLWRLLCQN-NH2 (cysteine pairing not given here) [compound 20, p53-derived linear peptide Ac‐…‐NH2]	-19.5064 10-3 deg cm2 dmol-1	-17.0082 10-3 deg cm2 dmol-1	better cell permeability and helicity	better cell permeability	–	–	–
p-Ac-QSQQTF(CNLWRLLK)QN-NH2 (sidechain bridge or staple) [29a, Cys-Lys stapled peptide from 28 and para reagent 9a]	-19.7351 10-3 deg cm2 dmol-1	-18.6972 10-3 deg cm2 dmol-1	–	–	enhanced helicity and binding affinity to the MDM2 protein	efficiently displaced the probe at concentrations close to that of MDM2	–
CC(C)C[C@@H]1NC(=O)[C@H](CC(C)C)NC(=O)[C@H](CCCNC(=N)N)NC(=O)[C@H](Cc2c[nH]c3ccccc23)NC(=O)[C@H](CC(C)C)NC(=O)[C@H](CC(N)=O)NC(=O)[C@@H](NC(=O)[C@H](Cc2ccccc2)NC(=O)[C@@H](NC(=O)[C@H](CCC(N)=O)NC(=O)[C@H](CCC(N)=O)NC(=O)[C@H](CO)NC(=O)[C@H](CCC(N)=O)NC(=O)c2ccc3c(c2)C(=O)OC32c3ccc(O)cc3Oc3cc(O)ccc32)[C@@H](C)O)CSC#Cc2ccc(cc2)C(=O)NCCCC[C@@H](C(=O)N[C@@H](CCC(N)=O)C(=O)N[C@@H](CC(N)=O)C(N)=O)NC1=O [29 a′] (HELM PEPTIDE1{[O=C1OC2(c3ccc(O)cc3Oc3cc(O)ccc32)c2ccc(C(=O)[*:2])cc21].Q.S.Q.Q.T.F.C.N.L.W.R.L.L.K.Q.N.[am]}|CHEM1{[O=C(c1ccc(C#C[*:1])cc1)[*:2]]}$PEPTIDE1,CHEM1,8:R3-1:R1|PEPTIDE1,CHEM1,15:R3-1:R2$$$V2.0)	–	–	–	–	–	–	12

Peptide text beside a SMILES is read from it.
